Results: the supplement of paper PMC8183993
Where a name gives a salt, the structure may show the parent alone. ± gives the standard deviation of the averaged measurements. The full ranking holds about 3,100 compounds; the median of “mean cytoplasmic OPP incorporation (global translation) relative to DMSO” is about 100, and the lowest 2% start at about 56. The list shows a part of the results.

What follows are compounds tested on U2OS (assay: mean cytoplasmic OPP incorporation (global translation) relative to DMSO (% of DMSO); higher = more protein synthesis). Conditions: 10 µM; 24 h.
Description: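 Primary image-based screen in U2OS cells: compounds at 10 uM for 24 h, then a 1 h o-propargyl-puromycin (OPP) pulse, click labelling, and high-throughput microscopy. Mean cytoplasmic OPP intensity and nuclei count were normalised to DMSO wells within each plate (DMSO = 100) and averaged over triplicate plates.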

SMILES	mean cytoplasmic OPP incorporation
CC(C)(F)C[C@H](N[C@@H](c1ccc(-c2ccc(S(C)(=O)=O)cc2)cc1)C(F)(F)F)C(=O)NC1(C#N)CC1 [Odanacatib (MK 0822)]	109
COc1cc(C)c(/C=C/C(C)=C/C=C/C(C)=C/C(=O)O)c(C)c1C [Acitretin]	101 ± 9.2
C[C@H](NC(=O)[C@@H]1CCCN1C(=O)[C@@H]1CCCN1C(=O)[C@@H](O)[C@H](N)Cc1ccccc1)C(N)=O [Apstatin]	101
O=c1[nH]c(=O)n([C@H]2C[C@H](O)[C@@H](CO)O2)cc1F [Floxuridine (Fludara)]	78.3
O=c1[nH]c(=O)n([C@H]2C[C@H](O)[C@@H](CO)O2)cc1F [Floxuridine]	63.9
CNNCc1ccc(C(=O)NC(C)C)cc1 [Procarbazine hydrochloride]	104
CC(C)CC(NC(=O)OCC1c2ccccc2-c2ccccc21)C(=O)O (configuration not stated)	109
COc1cc(/C=C/C(=O)O)ccc1O [Fumalic acid (Ferulic acid)]	102
C[N+]1(C)CCC(=C(c2ccccc2)c2ccccc2)CC1 [Diphemanil methylsulfate]	105
O=C(NC1CCOCC1)c1ccc(-c2cc(-c3c[nH]nc3-c3ccccn3)ccn2)cc1	93.3
O=C1C(=O)N(Cc2ccc(Cl)c(Cl)c2)c2ccccc21 [Apoptosis Activator 2]	89.5
NS(=O)(=O)c1cc2c(cc1Cl)NCNS2(=O)=O [Hydrochlorothiazide]	104
CN(C)CCC=C1c2ccccc2C=Cc2ccccc21 [Cyclobenzaprine hydrochloride]	97.4
O=C1c2cccc(O)c2C(=O)c2c(O)cc(CO)cc21 [Aloe-emodin]	89.9
CN(C)CCc1c[nH]c2ccc(C[C@H]3COC(=O)N3)cc12 [Zolmitriptan (Zomig)]	104
CC1=C(/C=C/C(C)=C/C=C/C(C)=C/C(=O)Nc2ccc(O)cc2)C(C)(C)CCC1 [Fenretinide]	120
NC(=O)c1ncn([C@@H]2O[C@H](CO)[C@@H](O)[C@H]2O)c1N [Acadesine]	91.7 ± 2.2
NC(=O)c1ncn([C@@H]2O[C@H](CO)[C@@H](O)[C@H]2O)c1N	110
CC(c1cc2ccccc2s1)N(O)C(N)=O (configuration not stated) [Zileuton]	105
Nc1ccc(-c2cccc3c(=O)cc(N4CCOCC4)oc23)cc1	80.3
C[C@@H]1C(=O)O[C@H]2C[C@@]34[C@H]5C[C@@H](C(C)(C)C)[C@]36[C@@H](OC(=O)[C@@H]6O)O[C@@]4(C(=O)O5)[C@]21O [Ginkgolide A]	103
CC[N+](C)(CC)CC(=O)Nc1c(C)cccc1C [N-Methyllidocaine iodide]	98.4
